# Test results published in the supplement of paper PMC8728848.
# The other results are listed elsewhere or left out.
# Legend:
# Experiment in all cases: glycan array binding signal (z-score within array); higher = stronger binding
# Settings in all cases: glycan notation: IUPAC condensed, linker removed
# [1] = molecular target: 3dGal(b1-3)[Fuc(a1-4)]Glc
# Summary of the method: (§1)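 Columns mapping to the same glycan were averaged after glycan names were converted to IUPAC-condensed notation. The data come from 3228 arrays in the Consortium for Functional Glycomics database, limited to those with an available protein sequence. Binding is reported as a within-array Z-score averaged across arrays of one protein sequence and across linkers.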
# 3dGal(b1-4)Glc = molecular target: 3dGal(b1-4)Glc
# Summary of the method: as §1
# [2] = molecular target: Ara(a1-5)Ara(a1-5)Ara(a1-5)Ara(a1-5)Ara(a1-5)Ara
# Summary of the method: as §1
# [3] = molecular target: Ara(a1-5)Ara(a1-5)Ara(a1-5)Ara(a1-5)Ara(a1-5)Ara(a1-5)Ara
# Summary of the method: as §1
# Fuc(a1-2)Gal = molecular target: Fuc(a1-2)Gal
# Summary of the method: as §1
# [4] = molecular target: Fuc(a1-2)Gal(b1-3)GlcNAc(b1-3)Gal(b1-4)Glc
# Summary of the method: as §1
# [5] = molecular target: Fuc(a1-2)Gal(b1-3)GlcNAc(b1-3)[Fuc(a1-3)[Gal(b1-4)]GlcNAc(b1-6)]Gal(b1-4)Glc
# Summary of the method: as §1
# [6] = molecular target: Fuc(a1-2)Gal(b1-3)[Fuc(a1-4)]GlcNAc(b1-3)Gal(b1-4)Glc
# Summary of the method: as §1
# [7] = molecular target: Fuc(a1-2)Gal(b1-3)[Fuc(a1-4)]GlcNAc(b1-3)Gal(b1-4)[Fuc(a1-3)]GlcNAc(b1-3)Gal(b1-4)Glc
# Summary of the method: as §1
# [8] = molecular target: Fuc(a1-2)Gal(b1-3)[Fuc(a1-4)]GlcNAc(b1-3)[Fuc(a1-2)]Gal(b1-4)Glc
# Summary of the method: as §1
# [9] = molecular target: Fuc(a1-2)Gal(b1-3)[Fuc(a1-4)]GlcNAc(b1-3)[Fuc(a1-3)[Gal(b1-4)]GlcNAc(b1-6)]Gal(b1-4)Glc
# Summary of the method: as §1
# [10] = molecular target: Fuc(a1-2)Gal(b1-3)[Fuc(a1-4)]GlcNAc(b1-3)[Gal(b1-4)GlcNAc(b1-6)]Gal(b1-4)Glc
# Summary of the method: as §1
# [11] = molecular target: Fuc(a1-2)Gal(b1-4)[Fuc(a1-3)]GlcNAc(b1-3)Gal(b1-4)Glc
# Summary of the method: as §1
# [12] = molecular target: Fuc(a1-2)Gal(b1-4)[Fuc(a1-3)]GlcNAc(b1-3)[Fuc(a1-2)]Gal(b1-4)Glc
# Summary of the method: as §1
# Fuc(a1-2)[Gal(a1-3)]Gal = molecular target: Fuc(a1-2)[Gal(a1-3)]Gal
# Summary of the method: as §1
# [13] = molecular target: Fuc(a1-2)[Gal(a1-3)]Gal(b1-4)GlcNAc(b1-3)Gal(b1-4)Glc
# Summary of the method: as §1
# [14] = molecular target: Fuc(a1-2)[GalNAc(a1-3)]Gal
# Summary of the method: as §1
# [15] = molecular target: Fuc(a1-2)[GalNAc(a1-3)]Gal(b1-3)GlcNAc(b1-3)Gal(b1-4)Glc
# Summary of the method: as §1
# [16] = molecular target: Fuc(a1-2)[GalNAc(a1-3)]Gal(b1-3)[Fuc(a1-4)]GlcNAc(b1-3)Gal(b1-4)Glc
# Summary of the method: as §1
# [17] = molecular target: Fuc(a1-2)[Neu5Ac(bond)]Gal(b1-3)GlcNAc(b1-3)Gal(b1-4)Glc
# Summary of the method: as §1
# Fuc(a1-3)GlcNAc6S = molecular target: Fuc(a1-3)GlcNAc6S
# Summary of the method: as §1
# [18] = molecular target: Fuc(a1-3)[3dGal(b1-4)]Glc
# Summary of the method: as §1
# Fuc(a1-3)[Gal(b1-4)]Glc = molecular target: Fuc(a1-3)[Gal(b1-4)]Glc
# Summary of the method: as §1
# [19] = molecular target: Fuc(a1-3)[Gal(b1-4)]GlcNAc
# Summary of the method: as §1
# [20] = molecular target: Fuc(a1-3)[Gal(b1-4)]GlcNAc(b1-3)Gal(b1-4)Glc
# Summary of the method: as §1
# [21] = molecular target: Fuc(a1-3)[Gal(b1-4)]GlcNAc(b1-3)Gal(b1-4)[Fuc(a1-3)]Glc
# Summary of the method: as §1
# [22] = molecular target: Fuc(a1-3)[Gal(b1-4)]GlcNAc(b1-3)[Fuc(a1-2)]Gal(b1-4)Glc
# Summary of the method: as §1
# [23] = molecular target: Fuc(a1-3)[Gal(b1-4)]GlcNAc(b1-3)[Fuc(a1-3)[Gal(b1-4)]GlcNAc(b1-6)]Gal(b1-4)Glc
# Summary of the method: as §1
# [24] = molecular target: Fuc(a1-3)[Gal3S(b1-4)]Glc
# Summary of the method: as §1
# [25] = molecular target: Fuc(a1-3)[Gal3S(b1-4)]GlcNAc
# Summary of the method: as §1
# [26] = molecular target: Fuc(a1-3)[Gal3S(b1-4)]GlcNAc(b1-3)Gal(b1-4)Glc
# Summary of the method: as §1
# [27] = molecular target: Fuc(a1-3)[Gal3S(b1-4)]GlcNAc6S(b1-3)Gal(b1-4)Glc
# Summary of the method: as §1
# [28] = molecular target: Fuc(a1-3)[Gal6S(b1-4)]GlcNAc(b1-3)Gal(b1-4)Glc
# Summary of the method: as §1
# Fuc(a1-6)GlcNAc = molecular target: Fuc(a1-6)GlcNAc
# Summary of the method: as §1
# [29] = molecular target: Gal(a1-3)Gal(b1-4)Gal(a1-3)Gal
# Summary of the method: as §1
# Gal(a1-4)Gal(b1-4)Glc = molecular target: Gal(a1-4)Gal(b1-4)Glc
# Summary of the method: as §1
# Gal(a1-4)Gal(b1-4)GlcNAc = molecular target: Gal(a1-4)Gal(b1-4)GlcNAc
# Summary of the method: as §1
binder,measurement,setting,value
"MIC1 (Toxoplasma gondii), O00834 (protein) VGPEAYGEASHSHSPASGRYIQQMLDQRCQEIAAELCQSGLRKMCVPSSRIVARNAVGITHQNTLQWRCFDTASLLESNQENNGVNCVDDCGHTIPCPGGVHRQNSNHATRHEILSKLVEEGVQRFCSPYQASANKYCNDKFPGTIARRSKGFGNNVEVAWRCYEKASLLYSVYAECASNCGTTWYCPGGRRGTSTELDKRHYTEEEGIRQAIGSVDSPCSEVEVCLPKDENPPLCLDESGQISRT",glycan array binding signal (z-score),[1],-0.312
same,glycan array binding signal (z-score),3dGal(b1-4)Glc,-0.305
same,glycan array binding signal (z-score),[2],-0.287
same,glycan array binding signal (z-score),[3],-0.287
same,glycan array binding signal (z-score),Fuc(a1-2)Gal,-0.287
same,glycan array binding signal (z-score),[4],-0.312
same,glycan array binding signal (z-score),[5],-0.297
same,glycan array binding signal (z-score),[6],-0.293
same,glycan array binding signal (z-score),[7],-0.302
same,glycan array binding signal (z-score),[8],-0.273
same,glycan array binding signal (z-score),[9],-0.312
same,glycan array binding signal (z-score),[10],-0.269
same,glycan array binding signal (z-score),[11],-0.296
same,glycan array binding signal (z-score),[12],-0.312
same,glycan array binding signal (z-score),Fuc(a1-2)[Gal(a1-3)]Gal,-0.292
same,glycan array binding signal (z-score),[13],-0.253
same,glycan array binding signal (z-score),[14],-0.287
same,glycan array binding signal (z-score),[15],-0.312
same,glycan array binding signal (z-score),[16],0.013
same,glycan array binding signal (z-score),[17],-0.42
same,glycan array binding signal (z-score),Fuc(a1-3)GlcNAc6S,-0.249
same,glycan array binding signal (z-score),[18],-0.337
same,glycan array binding signal (z-score),Fuc(a1-3)[Gal(b1-4)]Glc,-0.287
same,glycan array binding signal (z-score),[19],-0.287
same,glycan array binding signal (z-score),[20],-0.359
same,glycan array binding signal (z-score),[21],-0.312
same,glycan array binding signal (z-score),[22],-0.28
same,glycan array binding signal (z-score),[23],-0.312
same,glycan array binding signal (z-score),[24],-0.041
same,glycan array binding signal (z-score),[25],-0.284
same,glycan array binding signal (z-score),[26],-0.42
same,glycan array binding signal (z-score),[27],-0.418
same,glycan array binding signal (z-score),[28],-0.42
same,glycan array binding signal (z-score),Fuc(a1-6)GlcNAc,-0.287
same,glycan array binding signal (z-score),[29],-0.305
same,glycan array binding signal (z-score),Gal(a1-4)Gal(b1-4)Glc,-0.287
same,glycan array binding signal (z-score),Gal(a1-4)Gal(b1-4)GlcNAc,-0.302
